Data: PubChem BioAssay AID1508623 (National Center for Advancing Translational Sciences (NCATS), 2021)
Out of some 48,000 compounds screened, about 450 (0.94%) were called active. Another 19% or so got no clear call; they are omitted. Calls follow the shape of the dose curve; as a rule, active = well fitted inhibition curve with a large enough effect; inconclusive = small, poorly fitted or top-dose-only effect; inactive = no such curve, though single readings can be large or run the other way. Some of the results follow.

Experiment: Primary qHTS for Identification of Small Molecule Inhibitors of Huntingtin Promoter Activity; also: nearly all actives have a fitted effect of over 50% in size
Conditions: HEK293 HTT promoter firefly luciferase reporter (activity 0% = vehicle and -100% = no light), 24 h; series mostly up to 57.5 µM; activity change, negative = inhibition: at the top concentration
Procedure, shortened: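 Luminescence was read after Dual-Glo reagent and a 10 min room-temperature incubation. Values were normalized to vehicle (0% activity) and zero RLU (-100% activity). Reporter HEK293 cells had been exposed to compounds (up to 57.5 uM final) for 24 h.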

Activity change, negative = inhibition, inactive:
Cc1sc2ncn(CC(=O)N3CCN(c4ccc(F)cc4)CC3)c(=O)c2c1S(=O)(=O)N1CCC(C)CC1 -27.5%, COC(=O)C1=C(c2ccccc2)c2ccccc2S(=O)(=O)N1CC(=O)Nc1ccc(F)c(F)c1 -33.8%, Cc1ccc(CNC(=O)Cn2c(=O)cc(C(F)(F)F)c3c(C)nn(C)c32)cc1 -18.2%, CCOc1ccc(-c2nc(Cn3c(=O)cc(-c4ccccc4)c4c(C)nn(C)c43)c(C)o2)cc1 25.7%, CCOc1ccc(NC(=O)CN(c2ccc(CC)cc2)S(=O)(=O)c2c(C)noc2C)cc1 -25.8%, Cc1ccc(CNC(=O)C2CCN(S(=O)(=O)c3c(C)noc3/C=C/c3cccs3)CC2)cc1 -15.2%, O=C(CCS(=O)(=O)c1cc2c(cc1Cl)NC(=O)CO2)NCc1ccccc1Cl -5.16%, CC(C)Oc1ccc(CNC(=O)c2ccc(CN3CC(=O)N4CCCCC4C3=O)cc2)cc1 (stereo not given) -12.6%, Oc1c(C(c2ccc(Cl)cc2Cl)N2CCN(c3ccccc3)CC2)sc2nc(-c3ccco3)nn12 (stereo not given) -12.5%, CSc1ncc(C(=O)NCc2cccc(F)c2)c(-c2ccccc2)n1 -5.99%, O=c1c2oc3ccccc3c2n(Cc2ccccc2Cl)c(=O)n1Cc1ccco1 -9.44%, COc1ccc(CN(Cc2ccco2)c2cnc(S(C)(=O)=O)nc2C(=O)Nc2ccc(C)c(Cl)c2)cc1 -27.6%, Cc1ccc(NC(=O)c2cnn3c(C(F)F)cc(-c4ccccc4)nc23)cc1F -2.33%, CC(C)Oc1ccc(C(=O)N2CCN(CCc3ccccn3)CC2)cc1 -16.2%, CC1CCc2nn(CC(=O)Nc3ccccc3Cl)cc2C1 (stereo not given) 3.19%, CCOc1ccc(NC(=O)NCCc2c(C)nn(C)c2C)cc1 10.8%, Cc1c(C2=CCN(S(=O)(=O)c3cccc(Cl)c3)CC2)c2ccccc2n1CC(=O)N1CCCC1 -41.7%, Cc1ccc(NC(=O)C(C)Sc2nc(=O)cc(N)n2-c2cccc(C)c2)cc1 (stereo not given) -25%, COc1cccc(S(=O)(=O)N2CCN(Cc3ccc4c(c3)OCO4)CC2)c1 -21.5%, CCc1ccc(-c2nc3c(c(SCc4ccccc4F)n2)Cc2c(CO)cnc(C)c2O3)cc1 -6.07%, Cc1cccc(N2CCN(S(=O)(=O)c3ccc(-c4cc(C(F)(F)F)on4)s3)CC2)c1C -2.55%, Cc1ccccc1OCC(=O)Nc1ccc2nc(SCC(=O)N3CCc4ccccc43)sc2c1 -15.9%, O=C(C1CCCN(S(=O)(=O)c2ccc(Br)s2)C1)N1CCN(c2cccc(Cl)c2)CC1 (stereo not given) -23.1%, COc1cccc(C2C(C(=O)Nc3ccc(Cl)cc3)=C(C)Nc3nc4ccccc4n32)c1 (stereo not given) -14.5%, OCc1cc(C(O)CNCCCCCCOCCCCc2ccccc2)ccc1O (stereo not given) -8.17%, CCC(C)Sc1oc(-c2ccco2)nc1S(=O)(=O)c1ccc(C)cc1 (stereo not given) -30.5%, Cc1ccc(CNc2ncnc3c2cnn3-c2ccc(Cl)cc2)cc1 5.2%, COc1ccccc1C1Nc2c(sc3nc(C)cc(C)c23)C(=O)N1c1ccccc1 (stereo not given) 37.4%, COc1ccc2c(c1)c1c(c(=O)n(-c3ccc(C)cc3)c(=O)n1CC(=O)NCc1ccc(C)cc1)n2C -3.36%, COc1ccc(OCC(=O)Nc2cc(-c3nc4ccccc4s3)ccc2C)cc1 67.3%, CC(=O)OCC(=O)[C@@]12N=C(C)O[C@@H]1C[C@H]1[C@@H]3CCC4=CC(=O)C=C[C@]4(C)[C@H]3[C@@H](O)C[C@@]12C -1.6%, Cc1cc2c(cc1C)NC(CC(=O)Nc1cccc(Cl)c1)C(=O)N2 (stereo not given) -20%, O=C(O)Cc1sc(-c2ccccc2)nc1-c1ccc(Cl)cc1 3.1%, C=CCc1cccc2cc(C(=O)NCCc3c(C)[nH]c4c(C)cccc34)c(=O)oc12 -2.34%, CCN(CC)c1ccc(NC(=O)CCc2nc3cccnc3n2Cc2cccs2)c(C)c1 -16.7%, O=C(NCC(c1ccc2c(c1)OCO2)N1CCOCC1)C(=O)Nc1ccccc1 (stereo not given) -11.4%, CNc1ccc(-c2nc(-c3ccco3)no2)cc1[N+](=O)[O-] 64.4%, Cc1ccccc1NC(=O)c1ccc2c(O)c(S(=O)(=O)c3ccccc3)c(=O)[nH]c2c1 8.76%, CCOC(=O)N1CCC(NC(=O)c2cnn(-c3ccc(F)cc3F)c2C2CCN(C(=O)OC(C)(C)C)CC2)CC1 -4.22%, COc1ccc(CCNC(=O)c2c(C)oc3ncnc(N4CCOCC4)c23)c(OC)c1 -4.04%, Cc1ccc(S(=O)(=O)Nc2cc3c(cc2C)n(C)c(=O)c(=O)n3C)c(C)c1 -19.3%, Cc1cc(C)cc(Nc2cc(C(=O)NC3CCC(C)CC3)c3ccccc3n2)c1 (stereo not given) 5.49%, CCCN1C(C(=O)c2ccccc2)=C(OC(=O)c2ccc(OC)cc2)c2ccccc2S1(=O)=O -6.91%, Cn1nnnc1SCCCNCc1ccc(-c2ccc(F)c(Cl)c2)o1 -14.1%, CN(Cc1ccc(F)cc1)S(=O)(=O)c1nnc(NC(=O)c2ccccc2Cl)s1 -5.02%, O=C(Cn1c(=O)c(C(F)(F)F)nc2ccccc21)Nc1cccc(Br)c1 8.09%, CCc1ccc(NC(=O)CN2C(=O)CCSc3ccccc32)cc1 -20.4%, Cc1ccc(CNC(=O)C2CCCN(S(=O)(=O)c3cn(C)cn3)C2)cc1 (stereo not given) -21.1%, O=C(NCCc1ccccc1)c1ccc(CS(=O)(=O)Cc2ccccc2Cl)o1 -18.7%, Cc1cc(=O)n(CC(=O)NCc2ccc(OC(C)C)cc2)c2c1c(C)nn2-c1cccc(F)c1 -16.9%, Cc1ccc(NC(=O)C(C)Sc2nc(-c3ccccc3)c(C#N)c(=O)[nH]2)c(C)c1 (stereo not given) -8.87%, O=C(Nc1nnc(S(=O)(=O)N2CCOCC2)s1)c1ccccc1F 23.7%, O=c1c(N2CCc3ccccc3C2)csc2ccc(Cl)cc12 14.1%, CC(C)Cc1nn2c(=O)cc(COC(=O)c3ccc(NC(=O)CCc4ccccc4)cc3)nc2s1 -0.103%, COc1ccc(Nc2c(-c3ccc(N4CCOCC4)cc3)nc3ncccn23)cc1OC -1.6%, CC(C)c1cnc2c(c1SCC(=O)N1CCCCC1)c(=O)n(C)c(=O)n2C -10%, COc1ccc(/C=C/C(=O)Nc2sc(C)c(C)c2C(=O)O)cc1 -1.21%, CCc1ccc2c(c1)NC(c1ccc(C)cc1)=NC(c1cccs1)=N2 11.4%, CCOC(=O)N1CCc2c(sc3c2c(=O)n(Cc2ccccc2)c(=O)n3CC(=O)Nc2ccc(C)cc2C)C1 -9.14%, CCc1ccccc1N(C)C(=O)c1cn(-c2cccc(OC)c2)c(=O)c2ccccc12 -17.8%
